# Laboratory results published in the supplement of paper PMC8728848.
# This is one part of the list.
# How the values were obtained:
# Experiment in all cases: glycan array binding signal (z-score within array); higher = stronger binding
# Details in all cases: glycan notation: IUPAC condensed, linker removed; mutation: I144G
# [1] = target: Man(a1-2)Man(a1-3)[Man(a1-2)Man(a1-6)]Man
# In short: (§1)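 The binding signal is a Z-score computed within each array and averaged over linkers. Arrays of the same protein sequence at different concentrations or buffers were also averaged together. Data originate from 3228 arrays in the Consortium for Functional Glycomics database, kept only where the protein sequence was available.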
# [2] = target: Man(a1-2)Man(a1-3)[Man(a1-2)Man(a1-6)]Man(a1-6)[Man(a1-2)Man(a1-2)Man(a1-3)]Man
# In short: as §1
# [3] = target: Man(a1-2)Man(a1-3)[Man(a1-2)Man(a1-6)]Man(a1-6)[Man(a1-2)Man(a1-2)Man(a1-3)]Man(b1-4)GlcNAc(b1-4)GlcNAc
# In short: as §1
# [4] = target: Man(a1-2)Man(a1-3)[Man(a1-6)]Man(a1-6)[Man(a1-2)Man(a1-3)]Man(b1-4)GlcNAc(b1-4)GlcNAc
# In short: as §1
# [5] = target: Man(a1-2)Man(a1-6)[Man(a1-3)]Man(a1-6)[Man(a1-2)Man(a1-2)Man(a1-3)]Man
# In short: as §1
# [6] = target: Man(a1-2)Man(a1-6)[Man(a1-3)]Man(a1-6)[Man(a1-2)Man(a1-2)Man(a1-3)]Man(b1-4)GlcNAc(b1-4)GlcNAc
# In short: as §1
# [7] = target: Man(a1-3)[Man(a1-6)]Man
# In short: as §1
# [8] = target: Man(a1-3)[Man(a1-6)]Man(a1-6)[Man(a1-2)Man(a1-3)]Man(b1-4)GlcNAc(b1-4)GlcNAc
# In short: as §1
# [9] = target: Man(a1-3)[Man(a1-6)]Man(a1-6)[Man(a1-3)]Man
# In short: as §1
# [10] = target: Man(a1-3)[Man(a1-6)]Man(a1-6)[Man(a1-3)]Man(b1-4)GlcNAc(b1-4)GlcNAc
# In short: as §1
# [11] = target: Man(a1-3)[Man(a1-6)]Man(b1-4)GlcNAc(b1-4)GlcNAc
# In short: as §1
# [12] = target: Man(a1-3)[Man(a1-6)]Man(b1-4)GlcNAc(b1-4)[Fuc(a1-6)]GlcNAc
# In short: as §1
# [13] = target: Man(a1-6)Man
# In short: as §1
# [14] = target: Man(b1-4)GlcNAc
# In short: as §1
# [15] = target: MurNAc(b1-4)GlcNAc
# In short: as §1
# [16] = target: Neu5Ac(a2-3)Gal
# In short: as §1
# [17] = target: Neu5Ac(a2-3)Gal(b1-3)GalNAc
# In short: as §1
# [18] = target: Neu5Ac(a2-3)Gal(b1-3)GalNAc(b1-3)Gal(a1-4)Gal(b1-4)Glc
# In short: as §1
# [19] = target: Neu5Ac(a2-3)Gal(b1-3)GalNAc(b1-4)Gal(b1-4)Glc
# In short: as §1
# [20] = target: Neu5Ac(a2-3)Gal(b1-3)GalNAc(b1-4)[Neu5Ac(a2-3)]Gal(b1-4)Glc
# In short: as §1
# [21] = target: Neu5Ac(a2-3)Gal(b1-3)GalNAc(b1-4)[Neu5Ac(a2-8)Neu5Ac(a2-3)]Gal(b1-4)Glc
# In short: as §1
# [22] = target: Neu5Ac(a2-3)Gal(b1-3)GalNAc6S
# In short: as §1
# [23] = target: Neu5Ac(a2-3)Gal(b1-3)GlcNAc
# In short: as §1
# [24] = target: Neu5Ac(a2-3)Gal(b1-3)GlcNAc(b1-2)Man
# In short: as §1
# [25] = target: Neu5Ac(a2-3)Gal(b1-3)GlcNAc(b1-2)Man(a1-3)[GlcNAc(b1-4)][Neu5Ac(a2-3)Gal(b1-3)GlcNAc(b1-2)Man(a1-6)]Man(b1-4)GlcNAc(b1-4)GlcNAc
# In short: as §1
# [26] = target: Neu5Ac(a2-3)Gal(b1-3)GlcNAc(b1-2)Man(a1-3)[Neu5Ac(a2-3)Gal(b1-3)GlcNAc(b1-2)Man(a1-6)]Man(b1-4)GlcNAc(b1-4)GlcNAc
# In short: as §1
# [27] = target: Neu5Ac(a2-3)Gal(b1-3)GlcNAc(b1-2)[Neu5Ac(a2-3)Gal(b1-3)GlcNAc(b1-4)]Man(a1-6)[Neu5Ac(a2-3)Gal(b1-3)GlcNAc(b1-2)Man(a1-3)]Man(b1-4)GlcNAc(b1-4)GlcNAc
# In short: as §1
# [28] = target: Neu5Ac(a2-3)Gal(b1-3)GlcNAc(b1-3)Gal(b1-3)GlcNAc
# In short: as §1
# [29] = target: Neu5Ac(a2-3)Gal(b1-3)GlcNAc(b1-3)Gal(b1-4)GlcNAc
# In short: as §1
# [30] = target: Neu5Ac(a2-3)Gal(b1-3)GlcNAc(b1-3)GalNAc
# In short: as §1
# [31] = target: Neu5Ac(a2-3)Gal(b1-3)GlcNAc(b1-6)GalNAc
# In short: as §1
# [32] = target: Neu5Ac(a2-3)Gal(b1-3)GlcNAc6S
# In short: as §1
# [33] = target: Neu5Ac(a2-3)Gal(b1-3)[Fuc(a1-4)]GlcNAc
# In short: as §1
# [34] = target: Neu5Ac(a2-3)Gal(b1-3)[Fuc(a1-4)]GlcNAc(b1-3)Gal(b1-3)[Fuc(a1-4)]GlcNAc
# In short: as §1
# [35] = target: Neu5Ac(a2-3)Gal(b1-3)[Fuc(a1-4)]GlcNAc(b1-3)Gal(b1-4)[Fuc(a1-3)]GlcNAc
# In short: as §1
# [36] = target: Neu5Ac(a2-3)Gal(b1-3)[GlcNAc(b1-6)]GalNAc
# In short: as §1
# [37] = target: Neu5Ac(a2-3)Gal(b1-3)[Neu5Ac(a2-6)]GalNAc
# In short: as §1
# [38] = target: Neu5Ac(a2-3)Gal(b1-3)[Neu5Ac(a2-6)]GlcNAc(b1-3)[Fuc(a1-3)[Gal(b1-4)]GlcNAc(b1-6)]Gal(b1-4)Glc
# In short: as §1
# [39] = target: Neu5Ac(a2-3)Gal(b1-3)]Neu5Ac(a2-3)Gal(b1-4)]GlcNAc
# In short: as §1
# [40] = target: Neu5Ac(a2-3)Gal(b1-4)Glc
# In short: as §1
# [41] = target: Neu5Ac(a2-3)Gal(b1-4)GlcNAc
# In short: as §1
# [42] = target: Neu5Ac(a2-3)Gal(b1-4)GlcNAc(b1-2)Man
# In short: as §1
# [43] = target: Neu5Ac(a2-3)Gal(b1-4)GlcNAc(b1-2)Man(a1-3)[GlcNAc(b1-4)][Neu5Ac(a2-3)Gal(b1-4)GlcNAc(b1-2)Man(a1-6)]Man(b1-4)GlcNAc(b1-4)GlcNAc
# In short: as §1
# [44] = target: Neu5Ac(a2-3)Gal(b1-4)GlcNAc(b1-2)Man(a1-3)[Neu5Ac(a2-3)Gal(b1-4)GlcNAc(b1-2)Man(a1-6)]Man(b1-4)GlcNAc(b1-4)GlcNAc
# In short: as §1
# [45] = target: Neu5Ac(a2-3)Gal(b1-4)GlcNAc(b1-2)Man(a1-3)[Neu5Ac(a2-3)Gal(b1-4)GlcNAc(b1-2)Man(a1-6)]Man(b1-4)GlcNAc(b1-4)[Fuc(a1-6)]GlcNAc
# In short: as §1
binder,measurement,setting,value
"rAAL-I144G (Agrocybe aegerita), Q6WY08 (protein) MQGVNIYNISAGTSVDLAAPVTTGDIVTFFSSALNLNAGAGNPNNTTLNLFAENGAYLLHIAFRLQENVIIFNSRQPDGPWLVEQRVSDVANQFAGIDGKAMVTVFDHGDKYQVVINEKTVIQYTKQISGLTLSLSYNATEETSGFSTVVEAVTYTGLALEHHHHHH",glycan array binding signal (z-score),[1],-0.162
same,glycan array binding signal (z-score),[2],-0.099
same,glycan array binding signal (z-score),[3],-0.201
same,glycan array binding signal (z-score),[4],-0.113
same,glycan array binding signal (z-score),[5],-0.073
same,glycan array binding signal (z-score),[6],-0.006
same,glycan array binding signal (z-score),[7],-0.024
same,glycan array binding signal (z-score),[8],0.022
same,glycan array binding signal (z-score),[9],-0.175
same,glycan array binding signal (z-score),[10],-0.12
same,glycan array binding signal (z-score),[11],-0.094
same,glycan array binding signal (z-score),[12],-0.08
same,glycan array binding signal (z-score),[13],-0.179
same,glycan array binding signal (z-score),[14],-0.09
same,glycan array binding signal (z-score),[15],-0.17
same,glycan array binding signal (z-score),[16],-0.144
same,glycan array binding signal (z-score),[17],1.67
same,glycan array binding signal (z-score),[18],1.35
same,glycan array binding signal (z-score),[19],-0.123
same,glycan array binding signal (z-score),[20],1.33
same,glycan array binding signal (z-score),[21],-0.121
same,glycan array binding signal (z-score),[22],4.09
same,glycan array binding signal (z-score),[23],-0.088
same,glycan array binding signal (z-score),[24],-0.183
same,glycan array binding signal (z-score),[25],-0.134
same,glycan array binding signal (z-score),[26],-0.126
same,glycan array binding signal (z-score),[27],-0.062
same,glycan array binding signal (z-score),[28],-0.183
same,glycan array binding signal (z-score),[29],-0.144
same,glycan array binding signal (z-score),[30],-0.138
same,glycan array binding signal (z-score),[31],-0.115
same,glycan array binding signal (z-score),[32],-0.125
same,glycan array binding signal (z-score),[33],-0.184
same,glycan array binding signal (z-score),[34],-0.109
same,glycan array binding signal (z-score),[35],-0.111
same,glycan array binding signal (z-score),[36],1.74
same,glycan array binding signal (z-score),[37],-0.08
same,glycan array binding signal (z-score),[38],-0.139
same,glycan array binding signal (z-score),[39],-0.06
same,glycan array binding signal (z-score),[40],-0.131
same,glycan array binding signal (z-score),[41],-0.113
same,glycan array binding signal (z-score),[42],-0.069
same,glycan array binding signal (z-score),[43],1.63
same,glycan array binding signal (z-score),[44],0.214
same,glycan array binding signal (z-score),[45],0.102
